# Assay results: the supplement of paper PMC8728848
# Some of the results follow.
# B1: CAA (Caragana arborescens) (protein)
# chain: VAVEFDTFDNPDWDPRTKHIGIDVNSIRSNKTTQWGFWNRQVADVDISYEASSKTLNVSLYYPGESYIVTDVVDLKDILPEWVRIGF
# How the values were obtained:
# Assay in all cases: glycan array binding signal (z-score within array); higher = stronger binding
# Settings in all cases: glycan notation: IUPAC condensed, linker removed
# [1] = target: Fuc(a1-2)Gal(b1-4)[Fuc(a1-3)]GlcNAc
# Method in brief: (§1)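 Glycan array data came from 3228 arrays in the Consortium for Functional Glycomics database, and only arrays with an available protein sequence were kept. Glycan names were put into IUPAC-condensed notation, and columns mapping to the same glycan were averaged. The binding signal is a within-array Z-score, averaged across arrays of one protein sequence run at different concentrations or buffers and across linkers. A negative Z-score can be read as non-binding.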
# [2] = target: Fuc(a1-2)Gal(b1-4)[Fuc(a1-3)]GlcNAc(b1-2)Man(a1-3)[Fuc(a1-2)Gal(b1-4)[Fuc(a1-3)]GlcNAc(b1-2)Man(a1-6)]Man(b1-4)GlcNAc(b1-4)[Fuc(a1-6)]GlcNAc
# Method in brief: as §1
# [3] = target: Fuc(a1-2)Gal(b1-4)[Fuc(a1-3)]GlcNAc(b1-2)[Fuc(a1-2)Gal(b1-4)[Fuc(a1-3)]GlcNAc(b1-4)]Man(a1-3)[Fuc(a1-2)Gal(b1-4)[Fuc(a1-3)]GlcNAc(b1-2)Man(a1-6)]Man(b1-4)GlcNAc(b1-4)GlcNAc
# Method in brief: as §1
# [4] = target: Fuc(a1-2)Gal(b1-4)[Fuc(a1-3)]GlcNAc(b1-3)Gal(b1-4)[Fuc(a1-3)]GlcNAc
# Method in brief: as §1
# [5] = target: Fuc(a1-2)Gal(b1-4)[Fuc(a1-3)]GlcNAc(b1-3)Gal(b1-4)[Fuc(a1-3)]GlcNAc(b1-3)Gal(b1-4)[Fuc(a1-3)]GlcNAc
# Method in brief: as §1
# [6] = target: Fuc(a1-2)Gal(b1-4)[Fuc(a1-3)]GlcNAc(b1-3)GalNAc
# Method in brief: as §1
# [7] = target: Fuc(a1-2)Gal(b1-4)[Fuc(a1-3)]GlcNAc(b1-3)[Neu5Ac(a2-6)Gal(b1-4)GlcNAc(b1-6)]Gal(b1-4)Glc
# Method in brief: as §1
# [8] = target: Fuc(a1-2)Gal3S(b1-4)GlcNAc
# Method in brief: as §1
# [9] = target: Fuc(a1-2)Gal6S(b1-3)GlcNAc
# Method in brief: as §1
# [10] = target: Fuc(a1-2)Gal6S(b1-3)GlcNAc6S
# Method in brief: as §1
# Fuc(a1-2)Gal6S(b1-4)Glc = target: Fuc(a1-2)Gal6S(b1-4)Glc
# Method in brief: as §1
# [11] = target: Fuc(a1-2)Gal6S(b1-4)Glc6S
# Method in brief: as §1
# Fuc(a1-2)[Gal(a1-3)]Gal = target: Fuc(a1-2)[Gal(a1-3)]Gal
# Method in brief: as §1
# [12] = target: Fuc(a1-2)[Gal(a1-3)]Gal(b1-3)GalNAc
# Method in brief: as §1
# [13] = target: Fuc(a1-2)[Gal(a1-3)]Gal(b1-3)GalNAc(b1-3)Gal(a1-4)Gal(b1-4)Glc
# Method in brief: as §1
# [14] = target: Fuc(a1-2)[Gal(a1-3)]Gal(b1-3)GlcNAc
# Method in brief: as §1
# [15] = target: Fuc(a1-2)[Gal(a1-3)]Gal(b1-3)GlcNAc(b1-2)Man(a1-3)[Fuc(a1-2)[Gal(a1-3)]Gal(b1-3)GlcNAc(b1-2)Man(a1-6)]Man(b1-4)GlcNAc(b1-4)GlcNAc
# Method in brief: as §1
# [16] = target: Fuc(a1-2)[Gal(a1-3)]Gal(b1-3)GlcNAc(b1-2)Man(a1-3)[Fuc(a1-2)[Gal(a1-3)]Gal(b1-3)GlcNAc(b1-2)Man(a1-6)]Man(b1-4)GlcNAc(b1-4)[Fuc(a1-6)]GlcNAc
# Method in brief: as §1
# [17] = target: Fuc(a1-2)[Gal(a1-3)]Gal(b1-3)GlcNAc(b1-3)GalNAc
# Method in brief: as §1
# [18] = target: Fuc(a1-2)[Gal(a1-3)]Gal(b1-3)GlcNAc(b1-6)GalNAc
# Method in brief: as §1
# [19] = target: Fuc(a1-2)[Gal(a1-3)]Gal(b1-4)Glc
# Method in brief: as §1
# [20] = target: Fuc(a1-2)[Gal(a1-3)]Gal(b1-4)GlcNAc
# Method in brief: as §1
# [21] = target: Fuc(a1-2)[Gal(a1-3)]Gal(b1-4)GlcNAc(b1-2)Man
# Method in brief: as §1
# [22] = target: Fuc(a1-2)[Gal(a1-3)]Gal(b1-4)GlcNAc(b1-2)Man(a1-3)[Fuc(a1-2)[Gal(a1-3)]Gal(b1-4)GlcNAc(b1-2)Man(a1-6)]Man(b1-4)GlcNAc(b1-4)GlcNAc
# Method in brief: as §1
# [23] = target: Fuc(a1-2)[Gal(a1-3)]Gal(b1-4)GlcNAc(b1-2)Man(a1-3)[Fuc(a1-2)[Gal(a1-3)]Gal(b1-4)GlcNAc(b1-2)Man(a1-6)]Man(b1-4)GlcNAc(b1-4)[Fuc(a1-6)]GlcNAc
# Method in brief: as §1
# [24] = target: Fuc(a1-2)[Gal(a1-3)]Gal(b1-4)GlcNAc(b1-3)GalNAc
# Method in brief: as §1
# [25] = target: Fuc(a1-2)[Gal(a1-3)]Gal(b1-4)GlcNAc(b1-3)[Fuc(a1-2)[Gal(a1-3)]Gal(b1-4)GlcNAc(b1-6)]GalNAc
# Method in brief: as §1
# [26] = target: Fuc(a1-2)[Gal(a1-3)]Gal(b1-4)GlcNAc(b1-6)GalNAc
# Method in brief: as §1
# [27] = target: Fuc(a1-2)[Gal(a1-3)]Gal(b1-4)[Fuc(a1-3)]Glc
# Method in brief: as §1
# [28] = target: Fuc(a1-2)[Gal(a1-3)]Gal(b1-4)[Fuc(a1-3)]GlcNAc
# Method in brief: as §1
# [29] = target: Fuc(a1-2)[Gal(a1-3)]Gal(b1-4)[Fuc(a1-3)]GlcNAc(b1-3)GalNAc
# Method in brief: as §1
# [30] = target: Fuc(a1-2)[Gal(a1-4)]Gal(b1-4)GlcNAc
# Method in brief: as §1
# [31] = target: Fuc(a1-2)[GalNAc(a1-3)]Gal
# Method in brief: as §1
# [32] = target: Fuc(a1-2)[GalNAc(a1-3)]Gal(b1-3)GalNAc(a1-3)[Fuc(a1-2)]Gal(b1-4)GlcNAc
# Method in brief: as §1
# [33] = target: Fuc(a1-2)[GalNAc(a1-3)]Gal(b1-3)GalNAc(b1-3)Gal(a1-4)Gal(b1-4)Glc
# Method in brief: as §1
# [34] = target: Fuc(a1-2)[GalNAc(a1-3)]Gal(b1-3)GlcNAc
# Method in brief: as §1
# [35] = target: Fuc(a1-2)[GalNAc(a1-3)]Gal(b1-3)GlcNAc(b1-2)Man(a1-3)[Fuc(a1-2)[GalNAc(a1-3)]Gal(b1-3)GlcNAc(b1-2)Man(a1-6)]Man(b1-4)GlcNAc(b1-4)GlcNAc
# Method in brief: as §1
# [36] = target: Fuc(a1-2)[GalNAc(a1-3)]Gal(b1-3)GlcNAc(b1-2)Man(a1-3)[Fuc(a1-2)[GalNAc(a1-3)]Gal(b1-3)GlcNAc(b1-2)Man(a1-6)]Man(b1-4)GlcNAc(b1-4)[Fuc(a1-6)]GlcNAc
# Method in brief: as §1
binder,measurement,setting,value
B1,glycan array binding signal (z-score),[1],-0.247
same,glycan array binding signal (z-score),[2],0.278
same,glycan array binding signal (z-score),[3],-0.233
same,glycan array binding signal (z-score),[4],-0.249
same,glycan array binding signal (z-score),[5],-0.242
same,glycan array binding signal (z-score),[6],-0.238
same,glycan array binding signal (z-score),[7],-0.236
same,glycan array binding signal (z-score),[8],-0.244
same,glycan array binding signal (z-score),[9],-0.258
same,glycan array binding signal (z-score),[10],-0.255
same,glycan array binding signal (z-score),Fuc(a1-2)Gal6S(b1-4)Glc,-0.238
same,glycan array binding signal (z-score),[11],-0.234
same,glycan array binding signal (z-score),Fuc(a1-2)[Gal(a1-3)]Gal,-0.24
same,glycan array binding signal (z-score),[12],-0.248
same,glycan array binding signal (z-score),[13],-0.249
same,glycan array binding signal (z-score),[14],-0.238
same,glycan array binding signal (z-score),[15],3.82
same,glycan array binding signal (z-score),[16],2.14
same,glycan array binding signal (z-score),[17],-0.249
same,glycan array binding signal (z-score),[18],-0.241
same,glycan array binding signal (z-score),[19],-0.236
same,glycan array binding signal (z-score),[20],-0.24
same,glycan array binding signal (z-score),[21],-0.249
same,glycan array binding signal (z-score),[22],1.28
same,glycan array binding signal (z-score),[23],-0.241
same,glycan array binding signal (z-score),[24],-0.247
same,glycan array binding signal (z-score),[25],-0.24
same,glycan array binding signal (z-score),[26],-0.248
same,glycan array binding signal (z-score),[27],-0.245
same,glycan array binding signal (z-score),[28],-0.239
same,glycan array binding signal (z-score),[29],-0.251
same,glycan array binding signal (z-score),[30],-0.243
same,glycan array binding signal (z-score),[31],-0.247
same,glycan array binding signal (z-score),[32],-0.249
same,glycan array binding signal (z-score),[33],-0.243
same,glycan array binding signal (z-score),[34],-0.235
same,glycan array binding signal (z-score),[35],-0.042
same,glycan array binding signal (z-score),[36],-0.068
